Over roughly 33,000 sequences, “E-score (-0.5 to 0.5)” has its median near -0.043; the highest 2% begin near 0.37. The list shows a part of the results.
Target: T1, Upc2 (UniProt Q12151)
T1 sequence: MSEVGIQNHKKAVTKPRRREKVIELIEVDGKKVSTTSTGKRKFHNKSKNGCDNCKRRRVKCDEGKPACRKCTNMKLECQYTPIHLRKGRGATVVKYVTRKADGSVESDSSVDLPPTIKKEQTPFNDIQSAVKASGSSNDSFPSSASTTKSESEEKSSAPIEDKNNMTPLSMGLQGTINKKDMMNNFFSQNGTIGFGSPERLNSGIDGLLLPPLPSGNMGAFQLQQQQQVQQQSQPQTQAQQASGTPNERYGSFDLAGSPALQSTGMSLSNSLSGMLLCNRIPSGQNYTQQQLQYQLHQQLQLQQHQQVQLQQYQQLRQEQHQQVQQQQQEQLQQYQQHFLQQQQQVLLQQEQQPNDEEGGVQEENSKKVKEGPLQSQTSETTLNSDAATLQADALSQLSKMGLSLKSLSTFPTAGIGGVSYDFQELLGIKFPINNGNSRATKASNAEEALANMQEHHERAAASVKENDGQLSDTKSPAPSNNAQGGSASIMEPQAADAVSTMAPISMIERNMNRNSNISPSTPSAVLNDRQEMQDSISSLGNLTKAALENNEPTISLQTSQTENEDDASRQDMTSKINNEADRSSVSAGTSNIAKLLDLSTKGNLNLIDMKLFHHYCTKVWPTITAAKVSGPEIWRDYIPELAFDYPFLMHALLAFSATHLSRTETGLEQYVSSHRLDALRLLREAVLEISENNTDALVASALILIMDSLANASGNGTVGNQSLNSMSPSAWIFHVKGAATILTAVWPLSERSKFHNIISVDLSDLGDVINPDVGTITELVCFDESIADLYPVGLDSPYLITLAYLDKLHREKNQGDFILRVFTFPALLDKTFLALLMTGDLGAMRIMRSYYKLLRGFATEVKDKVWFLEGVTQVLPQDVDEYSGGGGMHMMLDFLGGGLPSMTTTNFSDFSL
Experiment: PBM E-score (8-mer binding enrichment) (E-score (-0.5 to 0.5)); higher = stronger / more preferred TF binding; most listed sequences are background and not binding sites
Conditions: protein concentration: 200 nM; construct: GST-full length
Method: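 Universal 'all 10-mer' protein binding microarrays (Agilent AMADID 015681) probed with GST-tagged S. cerevisiae TFs (full-length or DBD) made by in vitro transcription/translation (PURExpress), about 100-200 nM. Bound TF was detected with fluorescent anti-GST. Each ungapped 8-mer (which stands for itself and its reverse complement) is scored by the PBM enrichment score (E-score), a modified Wilcoxon-Mann-Whitney statistic from -0.5 to +0.5, computed with the Universal PBM Analysis Suite. Scale: above 0.35 generally sequence-specific binding.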

Sequence	PBM E-score
AAGCTAGT	-0.189
CTTTGAAA	0.142
TCAGTCCA	-0.272
GCTGTCCA	-0.246
TATAGCCA	0.173
CGGCGGCA	-0.106
CGGCAGTC	0.0795
CCAGTTCC	-0.102
AAAGATCT	0.0358
TACTTATA	0.117
CATGTCGA	-0.171
TAATTTGA	0.0182
AAACCTTT	-0.138
ATACGTTG	0.325
CGCATCAC	-0.0629
ATCTCGCC	-0.0574
TCCGGCCA	-0.106
AGTCTGTC	-0.0794
ACTAGTGG	-0.223
ATAGCAAC	-0.172
AAGAGGGA	0.0615
CGACGCAA	0.121
TCGCCGCA	-0.0606
AGAGACGG	-0.226
AGGTGTGA	-0.259

Sequence	PBM E-score
CGCAGGCG	-0.263
ACGAGACC	0.347
AGCGATAG	0.0747
CCATGTTA	-0.0947
CCTCGTAA	0.444
AACTTCTA	-0.0203
TAATACCA	-0.0667
AGCGTCGG	0.073
ACAGAGAG	-0.14
CCAGTTTA	0.0344
CAGGGCGG	-0.129
AACAACGA	0.17
GCGGTCAC	-0.134
AGGTCACA	-0.149
AATGACAA	-0.0542
TAGGCGAA	0.0974
AGGACCTA	0.0278
TGCTGAAA	-0.21
AGCGCATC	0.201
CATCGCGG	-0.0154
ATGCCATG	0.0786
CTGTCTCC	-0.11
ACGCTCCT	0.0165
TACAGGTA	0.265
AAATCACT	0.0881

Sequence	PBM E-score
AAACCGGC	-0.0443
GCTTGCAC	0.0585
CCTATCAC	-0.207
CGAGACGA	0.213
GGCGCCCC	-0.209
ATTAGGCA	-0.0908
AGGAATAT	0.0737
ACTGAACT	-0.0256
AGGCTGCA	-0.203
GACCTATA	0.244
CAGGTTGC	-0.0756
CCGGCTAG	-0.228
GGCCACCC	-0.0635
GGGAGAAA	-0.036
GTGTATTA	0.0796
AGTGCACT	-0.22
CACATTGG	-0.179
ATCAATCA	0.0322
CGGCTGAA	-0.0225
ATCTGGAG	-0.207
TAGGTTGA	-0.08
CCGTGTGC	-0.306
GCAAGACC	-0.0223
CCTTCGGC	-0.284
CGCAGCCC	-0.0774

Sequence	PBM E-score
GGACAGCC	-0.0462
GGCCGACA	-0.0541
AGCGGCCG	0.18
CGGCTTCC	-0.208
AACCCTCA	-0.0288
GCGCTAGC	-0.0898
ATAGTAAT	0.0924
AGACCAGG	-0.122
AGTTACAA	-0.0507
CGTCCTAC	-0.234
TCCTTACA	-0.231
GCCACGCA	-0.0506
AAGTGTGA	-0.21
ATCTGGAA	-0.0378
CCGTACAC	0.382
CAAGGGGG	-0.129
GTGCTAGA	-0.281
GGAAAAAC	0.0964
GGCATTCA	-0.117
GCAGTGAC	-0.261
CACGCGTA	0.248
CTGTACCA	-0.134
AATGCTGC	0.0736
ATGACGTG	-0.203
ACGAAGCC	0.308

Sequence	PBM E-score
GACCACGA	0.00727
TCTATGCA	-0.2
ACACTAAG	0.0874
GAACATCC	-0.0253
CCCATACC	0.0537
AACTAGAT	-0.109
GACGGCGC	-0.0257
AGCGCAAA	0.0493
AGAATACT	-0.0804
AACTAGTA	-0.0317
AAGTGTCC	-0.117
CAACCAGA	0.0869
AGCCTTGG	-0.285
CCCAGAAG	-0.225
CGAGGCTA	0.11
CAAGTAAC	0.00235
CAACTAAA	-0.0762
AACGAGTT	0.399
CCCATTGA	-0.173
GCCATCAC	-0.158
ATGTATGA	-0.0355
GCACTCTA	-0.0835
CTCGTTAA	0.466
AATTCGGA	0.136
GGCGTCCA	-0.398

Sequence	PBM E-score
CAACGTTG	0.167
ATCTTTGC	0.0667
ACGTTTAA	0.407
AGTCAAAC	0.181
GCAAACAA	0.00753
ACGGGTAT	0.212
CAACATCG	-0.00483
GGCAACTA	-0.245
ACATAGGG	-0.164
GCTTTACA	0.136
CGGATCAG	-0.014
GATAAACA	-0.144
CTTGATAC	-0.0118
GAGCACTC	0.0756
GGACACCA	-0.23
CAGGCGCC	-0.151
GCCATAAC	-0.187
AAGCGCAC	0.0992
CTTCCACA	-0.103
AGGATTAC	0.0091
ATCGCCAC	-0.00953
CCTAAAAC	0.0327
TACTCATA	-0.0136
ATGTTAAG	-0.0242
ACGAGCTA	0.394

Sequence	PBM E-score
GAAATCCC	-0.0323
GGTCTGGA	-0.167
AAACTTTG	-0.00722
AACGAAAC	0.37
GGCGTCAC	0.0542
GGGCCCTA	-0.171
ACGATCAG	0.255
CTGAGCCA	-0.287
TGAAAGCA	-0.0222
AACATCTC	-0.16
GCTCCAAC	-0.0332
GTAACCTA	0.0311
AGGAGCGG	-0.341
AAGGCCAC	-0.22
CCACCAGC	0.0943
GACGCCGA	0.0196
GCCGGGAC	-0.295
CCCCATTC	-0.0233
GAAACTGC	-0.0568
CGAGTTCC	0.115
TAATCATA	-0.00869
ATGCCACA	-0.272
